Each structure is given as a SMILES string.

This test deals with MLKL phosphorylation, HT29-L23 human colorectal adenocarcinoma cells. Briefly: cells. The following applies: read-out: pMLKL HCS Cell Assay (IC50, uM).
In the case of `Cc1ncc(-c2cc(C(F)(F)F)c3c(N)ncnn23)cc1C(=O)Nc1ccn(Cc2ccc(F)cc2)n1` [Example 1810, 5-(4-amino-5-(trifluoromethyl)pyrrolo[2,1-f][1,2,4]triazin-7-yl)-N-(1-(4-fluorobenzyl)-1H-pyrazol-3-yl)-2-methylnicotinamide], the IC50 stood at 0.0028 µM.
The result for `COc1ncc(-c2cc(CN3CCC(C(F)(F)F)CC3)c3c(N)ncnn23)cc1C(=O)N[C@@H]1CN(C(=O)[C@@](C)(O)C(F)(F)F)C[C@@H]1F` [Example 1598, 5-(4-amino-5-{[4-(trifluoromethyl)piperidin-1-yl]methyl}pyrrolo[2,1-f][1,2,4]triazin-7-yl)-N-[(3R,4S)-4-fluoro-1-[(2R)-3,3,3-trifluoro-2-hydroxy-2-methylpropanoyl]pyrrolidin-3-yl]-2-methoxypyridine-3-carboxamide] reads 0.0012 µM; that for `COc1ncc(-c2cc(C(F)(F)F)c3c(N)ncnn23)cc1C(=O)N[C@@H]1CN(C(=O)c2ccc(F)cn2)C[C@@H]1F` [Example 309, 5-[4-amino-5-(trifluoromethyl)pyrrolo[2,1-f][1,2,4]triazin-7-yl]-N-[(3R,4S)-4-fluoro-1-(5-fluoro-pyridine-2-carbonyl)pyrrolidin-3-yl]-2-methoxypyridine-3-carboxamide], 0.063 µM.
The result for `Cc1ccc(-c2cc(C(F)(F)F)c3c(N)ncnn23)cc1C(=O)N[C@@H]1CN(C(=O)c2ccccc2S(C)(=O)=O)C[C@@H]1F` [Example 1036, 5-[4-amino-5-(trifluoromethyl)pyrrolo[2,1-f][1,2,4]triazin-7-yl]-N-[(3R,4S)-4-fluoro-1-(2-methanesulfonylbenzoyl)pyrrolidin-3-yl]-2-methylbenzamide] reads 0.119 µM.
The result for `COc1ccc(-c2cc(C(F)(F)F)c3c(N)ncnn23)cc1C(=O)N[C@@H]1CN(C(=O)C2CCC(F)(F)CC2)C[C@@H]1F` [Example 1129, 5-[4-amino-5-(trifluoromethyl)pyrrolo[2,1-f][1,2,4]triazin-7-yl]-N-[(3R,4S)-1-(4,4-difluorocyclohexanecarbonyl)-4-fluoropyrrolidin-3-yl]-2-methoxybenzamide] reads 0.037 µM; that for `COc1ncc(-c2cc(C(F)(F)F)c3c(N)ncnn23)cc1C(=O)N[C@@H]1CN(C(C)(C)C(C)=O)C[C@@H]1F` [Example 1682, 5-(4-amino-5-(trifluoromethyl)pyrrolo[2,1-f][1,2,4]triazin-7-yl)-N-((3R,4S)-4-fluoro-1-(2-methyl-3-oxobutan-2-yl)pyrrolidin-3-yl)-2-methoxynicotinamide], 0.2 µM.
On to `CC(C)(F)C(=O)N1C[C@H](F)[C@H](NC(=O)c2cc(-c3cc(CN4CCC(C(F)(F)F)CC4)c4c(N)ncnn34)ccc2Cl)C1` [Example 1152, 5-(4-amino-5-{[4-(trifluoromethyl)piperidin-1-yl]methyl}pyrrolo[2,1-f][1,2,4]triazin-7-yl)-2-chloro-N-[(3R,4S)-4-fluoro-1-(2-fluoro-2-methylpropanoyl)pyrrolidin-3-yl]benzamide], for which the IC50 was found to be 0.001 µM.
The result for `Cc1cc(F)c(-c2cc(C(F)(F)F)c3c(N)ncnn23)cc1C(=O)N[C@@H]1CN(C(=O)C2CCCC2)C[C@@H]1F` [Example 797, 5-[4-amino-5-(trifluoromethyl)pyrrolo[2,1-f][1,2,4]triazin-7-yl]-N-[(3R,4S)-1-cyclopentanecarbonyl-4-fluoropyrrolidin-3-yl]-4-fluoro-2-methylbenzamide] reads 0.0022 µM; that for `Cc1ccc(-c2cc(C(F)(F)F)c3c(N)ncnn23)cc1C(=O)N[C@@H]1CN(C(=O)c2ccncc2Cl)C[C@@H]1F` [Example 1038, 5-[4-amino-5-(trifluoromethyl)pyrrolo[2,1-f][1,2,4]triazin-7-yl]-N-[(3R,4S)-1-(3-chloropyridine-4-carbonyl)-4-fluoropyrrolidin-3-yl]-2-methylbenzamide], 0.0062 µM.
